According to PubChem BioAssay AID1476 (National Center for Advancing Translational Sciences (NCATS), 2009):
Among all 200,000 compounds or so, about 4,500 (2.2%) were called active. The shares of active, inactive and inconclusive entries below differ from those in the screen. Calls follow the shape of the dose curve; as a rule, active = well fitted inhibition curve with a large enough effect; inconclusive = small, poorly fitted or top-dose-only effect, or effect the other way; inactive = flat fitted curve, though single readings scatter. Potencies beside an inconclusive call are fits to weak or partial responses and may not hold up.

Biological target: Cruzipain (Trypanosoma cruzi) (UniProt P25779)
Sequence of UniProt P25779 (P25779 whole entry, looked up): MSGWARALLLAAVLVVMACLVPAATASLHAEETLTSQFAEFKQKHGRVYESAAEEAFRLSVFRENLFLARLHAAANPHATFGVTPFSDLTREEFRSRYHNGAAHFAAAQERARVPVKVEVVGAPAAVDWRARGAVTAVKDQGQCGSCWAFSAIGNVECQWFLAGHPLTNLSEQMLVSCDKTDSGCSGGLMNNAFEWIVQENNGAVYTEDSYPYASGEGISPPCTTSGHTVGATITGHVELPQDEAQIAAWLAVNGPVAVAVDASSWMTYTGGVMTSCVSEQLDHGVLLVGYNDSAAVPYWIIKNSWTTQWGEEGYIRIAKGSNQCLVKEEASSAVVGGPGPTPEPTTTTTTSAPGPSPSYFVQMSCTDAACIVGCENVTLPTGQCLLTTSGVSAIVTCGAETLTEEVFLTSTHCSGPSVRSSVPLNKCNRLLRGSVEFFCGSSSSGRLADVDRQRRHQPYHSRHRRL
Assay: qHTS Assay for Promiscuous and Specific Inhibitors of Cruzain (without detergent); also: nearly all actives have a fitted effect of over 40% in size;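 as to max response, negative = inhibition: plate controls were enzyme without inhibitor for no effect and buffer without enzyme for full effect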
Conditions: purified cruzain, Z-FR-AMC fluorescence, no detergent
Summary of the method: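 Purified cruzain at 1.5 nM, pre-incubated 15 min with compound at room temperature in 100 mM sodium acetate pH 5.5, 5 mM DTT, 0.00005% Triton X-100. Reaction started with 2 uM Z-FR-AMC; AMC fluorescence increase over 60 s gives rate.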
Potency is read from the fitted curve at half-maximal effect; tags tell the direction and shape of the fitted curve.

Structure (SMILES)	max response, negative = inhibition	Potency
CC1CCN(c2nc3ccccc3nc2N2CCC(C)CC2)CC1	inactive: -7.25%	
NC(=O)c1ccsc1NC(=O)COC(=O)C1CCCN1C(=O)c1cccs1 (stereo unspecified)	inactive: -8.2%	
O=C(Nc1ccc2nc(SCC(=O)N3CCOCC3)sc2c1)c1cccc(Cl)c1		inconclusive: 39.8 µM [activator, single point]
CCCCc1ccc(/C=C2\C(=O)c3ccccc3C(O)=C2C(=O)OCC)cc1		inconclusive: 39.8 µM [inhibitor, single point]
CC(Cl)CCl (stereo unspecified)	inactive: -6.51%	
Cc1cc(OCCn2cc(C(=O)c3cccs3)c3ccccc32)ccc1Cl	inactive: -11.6%	
COc1ccccc1N1CCN(C(=O)CN(c2ccccc2OC)S(=O)(=O)c2ccccc2)CC1		inconclusive: 6.31 µM [activator, full curve]
CN(Cc1ccco1)c1ccnc(-c2ccccc2C(F)(F)F)n1	inactive: 1.88%	
CCOc1ccccc1CNC(=O)C1CCN(C(=O)N2CC(CC)Oc3ccc(C)cc32)CC1 (stereo unspecified)		inconclusive: 25.1 µM [inhibitor, single point]
CCOc1ccc(Oc2nc(NCC(C)C)nc(N3CCOCC3)n2)nn1	inactive: 14.6%	
O=C1CN(C(=O)COC(=O)CNC(=O)c2ccccc2)c2ccccc2N1		active: 15.8 µM
CCC(Cc1ccccc1)NC(=O)C1CCN(S(=O)(=O)c2c(C)noc2C)CC1 (stereo unspecified)		inconclusive: 6.31 µM [inhibitor, single point]
FC(F)(F)c1nnc2ccc(N3CCN(c4ccccc4)CC3)nn12		inconclusive: 39.8 µM [activator, single point]
COc1ccc(C)cc1NC(=O)CCS(=O)(=O)c1cc2c3c(c1)CCN3C(=O)CC2	inactive: 2.45%	
O=C(c1cccc(F)c1)N1CCC2(CC1)CN(c1ccccn1)C2	inactive: -10.2%	
Cc1cc(C)cc(NC(=O)C(Cc2ccccc2)NS(=O)(=O)c2ccc3c(c2)c(=O)n(C)c(=O)n3C)c1 (stereo unspecified)		inconclusive: 39.8 µM [activator, single point]
COc1ccccc1OCc1ccc(C(=O)NC(C)(C)C)o1		inconclusive: 31.6 µM [inhibitor, single point]
CC1(CC(=O)O)O[C@H]2CCCCC[C@H]2O1 (stereo partly specified) (tested in a mixture with another compound)	inactive: 0.757%	
CC(Oc1ccc(F)cc1)C(=O)N1CCC(c2nc3ccccc3s2)CC1 (stereo unspecified)		inconclusive: 20 µM [activator, single point]
CC(NC(=O)/C(=C\c1cccc([N+](=O)[O-])c1)NC(=O)c1ccco1)C(=O)O (stereo unspecified)		inconclusive: 25.1 µM [inhibitor, single point]
Cc1ccc(-n2c(=O)c3cccnc3n2CC(=O)Nc2ccc(Br)cc2)cc1C		inconclusive: 39.8 µM [inhibitor, single point]
CCCCN(C)CCNC(=O)c1c2c(nc3ccccc13)C(=O)N(C1CCCCC1)C2	inactive: -5.75%	

Structure (SMILES)	max response, negative = inhibition	Potency
Cc1c(C(=O)NCC(c2ccc(Cl)cc2)N2CCOCC2)oc2ccccc12 (stereo unspecified)		inconclusive: 39.8 µM [activator, single point]
CCOc1ccc(N2CC(c3nc4ccccc4n3CCCOc3ccccc3)CC2=O)cc1 (stereo unspecified)		inconclusive: 1.58 µM [inhibitor, single point]
CCCCOC(=O)c1ccc(NC(=O)c2cc3c(=O)n4cccc(C)c4nc3s2)cc1	inactive: -8.12%	
COc1ccc(C2CC(c3cccs3)=NN2c2ccc(C=O)cc2)cc1 (stereo unspecified)		inconclusive: 31.6 µM [inhibitor, single point]
N#CC1=C(N)C2=CCCC[C@H]2[C@H](c2cccc(F)c2)C1(C#N)C#N		inconclusive: 39.8 µM [activator, single point]
CCOc1cc(-c2nnc(-c3ccco3)o2)cc(OCC)c1OCC		inconclusive: 39.8 µM [activator, single point]
CC(C)c1ccc(NC(=O)Cn2cc(S(=O)(=O)N3CCN(c4ccccc4F)CC3)c3ccccc3c2=O)cc1		active: 7.94 µM
CCOC(=O)c1cc2c(ccn2-c2ccc(F)cc2)n1CC(=O)N1CCN(C(=O)c2ccco2)CC1		inconclusive: 31.6 µM [activator, single point]
CCOc1ccc(NC(=O)c2cnc(N3CCCC3)nc2C)cc1	inactive: -0.567%	
Cc1cccc(-c2nnc(SCC(=O)Nc3cccc(C(=O)N4CCOCC4)c3)n2C)c1	inactive: 0.075%	
C/C(=N\Nc1ccc(S(=O)(=O)Nc2ccc(Cl)cc2)cc1[N+](=O)[O-])c1ccc(N2CCOCC2)cc1		active: 10 µM
CCOCCc1nn2c(=O)cc(COC(=O)CNC(=O)c3cccc(C)c3)nc2s1	inactive: 14.6%	
O=C(CSc1nnc(CNc2ccc(F)cc2)n1Cc1ccccc1)NCc1ccccc1		inconclusive: 39.8 µM [activator, single point]
N#CCCN/N=C(/Cc1nc2ccccc2[nH]1)c1cccc(Cl)c1		inconclusive: 31.6 µM [inhibitor, single point]
CC1=C(C#N)C(NC(=O)c2ccccc2Cl)(C(F)(F)F)C(=O)N1 (stereo unspecified)		inconclusive: 1.26 µM [activator, partial curve]
Cc1cccc(CNc2ncncc2-c2ccccc2CN(C)C)c1	inactive: 1.15%	
Cc1ccccc1Nc1nc(-c2sc(NC(=O)c3cccc(Cl)c3)nc2C)cs1		active: 6.31 µM
CCCCc1cc(=O)oc2c(CN(C)C)c(O)ccc12		inconclusive: 39.8 µM [inhibitor, single point]
COc1cc(/C=C2/C(=O)N(c3ccccc3)N=C2C)ccc1OS(=O)(=O)c1ccccc1		inconclusive: 31.6 µM [inhibitor, single point]
CCOc1ccc(-c2nnc(NC(=O)CCCOc3cccc(C)c3)o2)cc1		inconclusive: 39.8 µM [inhibitor, single point]
Cc1ccccc1CN1C(=O)c2ccccc2S(=O)c2ccc(C(=O)NC3CCC(C)CC3)cc21 (stereo unspecified)	inactive: 7.58%	
O=C(c1ccc2c(c1)N(Cc1cccc(F)c1)C(=O)c1ccccc1S2)N1CCOCC1		inconclusive: 39.8 µM [activator, single point]

Structure (SMILES)	max response, negative = inhibition	Potency
N#Cc1c(/N=C/c2ccco2)sc2c1CCC2		inconclusive: 39.8 µM [inhibitor, single point]
Cc1ccc(CNc2cnn(C34CC5CC(CC(C5)C3)C4)c(=O)c2Cl)cc1	inactive: -9.03%	
Cc1ccc(S(=O)(=O)c2nnn3c2nc(N2CCN(c4ccccc4F)CC2)c2cc(Cl)ccc23)cc1C		inconclusive: 3.16 µM [inhibitor, single point]
CC(C)N(C#N)c1nc(N2CCOCC2)nc(N2CCOCC2)n1	inactive: -5.41%	
COc1ccc(OC)c(N2Cc3ccccc3C2)c1		inconclusive: 31.6 µM [inhibitor, single point]
Cc1cc(=O)oc2c3c(ccc12)OCN(Cc1ccccc1Cl)C3		inconclusive: 39.8 µM [inhibitor, single point]
Cc1cc(C)nc(N/N=C/C2=C(N3CCOCC3)C(=C\c3ccc(Cl)cc3)/CC2)n1	inactive: -20.7%	
O=C(CCC1CCCCC1)Nc1ccc(S(=O)(=O)Nc2nccs2)cc1	inactive: -4.05%	
COC(=O)c1ccc(NC(=S)NC2CC(C)(C)NC(C)(C)C2)cc1	inactive: -6.88%	
COc1ccc(N2CCN(C(=O)Cn3cnc4sc(C)c(S(=O)(=O)N5CCC(C)CC5)c4c3=O)CC2)cc1		inconclusive: 25.1 µM [activator, partial curve]
Cc1ccc(S(=O)(=O)N2CCCN(c3nc4cc(C)ccc4cc3C#N)CC2)cc1		inconclusive: 12.6 µM [inhibitor, partial curve]
CCOC(=O)c1ccccc1NC(=O)Cc1c(C(=O)O)c(C)cn1C	inactive: -9.15%	
Cc1ccccc1C1C2=C(Nc3[nH]n(-c4ccccc4)c(=O)c31)c1ccccc1C2=O (stereo unspecified)		inconclusive: 25.1 µM [inhibitor, single point]
COC(=O)c1ccccc1NC(=O)CN1CCC(n2nnc3cc(C(F)(F)F)ccc32)CC1		inconclusive: 12.6 µM [activator, partial curve, poor fit]
COc1ccc(N2CCN(C(=O)CSc3nc4c(c(=O)n(C)c(=O)n4C)n3C(C)C)CC2)cc1		inconclusive: 39.8 µM [activator, single point]
Clc1cccc(Cl)c1CNC1CCCC1		inconclusive: 0.126 µM [inhibitor, single point]
CCc1ccc(NC(=O)CSc2n[nH]c(C)c2[N+](=O)[O-])cc1		inconclusive: 31.6 µM [inhibitor, single point]
O=S(=O)(Nc1nc2ccccc2nc1Nc1ccc2c(c1)OCO2)c1ccc(F)cc1		inconclusive: 31.6 µM [inhibitor, single point]
CCCCCN(C(=O)NC(=O)Nc1ccc(C)cc1)S(=O)(=O)c1ccccc1		inconclusive: 39.8 µM [activator, single point]
CCC1=C2CC[C@H]3C(=O)N(c4ccccc4)C(=O)[C@H]3[C@H]2[C@@]2(Cc3ccccc3)C(=NCCc3c[nH]c4ccccc34)OC(=O)N2C1=O	inactive: -16.4%	
COCCCn1c(=N)c(C(=O)NC2CCCCC2)cc2c(=O)n3ccccc3nc21		inconclusive: 39.8 µM [inhibitor, single point]
Cc1nc2cc(-c3sccc3-n3cccc3)nn2c(C)c1C		inconclusive: 39.8 µM [activator, single point]
